Out of some 45,000 compounds screened, about 200 (0.44%) were called active. About 7% were inconclusive and are not listed. The call rests on the fitted dose curve; in most records, active means well fitted activation curve with a large enough effect; inconclusive means small, poorly fitted or top-dose-only effect; inactive means no such curve, though single readings can be large or run the other way. The list shows a part of the results.

The test in a line: qHTS of TDP-43 Inhibitors: NCGC Sytravon Library Screen. Further: 0% is about no effect; nearly all actives have a fitted effect of over 55% in size. The settings on record: yeast TDP-43 toxicity rescue, BacTiter-Glo growth, 24 h; series mostly up to 46.1 µM; growth rescue (activation): at the top concentration. In a few lines:
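TDP-43-expressing yeast, pregrown in raffinose, seeded at OD600 0.02 in galactose medium with compound for 24 hr at 30 deg C. Growth read by BacTiter-Glo luminescence, so rescue of toxicity appears as activation.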
Background: qHTS replaces the single test concentration by a dilution series.
For `CCCN1CCc2c(sc3nc(SCC)n(-c4ccc(OC)cc4)c(=O)c23)C1`, the “growth rescue (activation)” value was inactive: 6.72%. The value for `COc1cc2[nH]c(C(=O)NCCc3ccccc3)cc2c(OC)c1OC` was inactive: 29.6%; that for `O=C(O)CC(NS(=O)(=O)c1c(F)cc(F)cc1Br)c1ccccc1Cl` (centres undefined) was inactive: 31%; that for `CCc1nc2ccc(C(=O)NCc3cccs3)cn2c1N(CCC(C)C)CCN(C)C` was inactive: -7.43%. The value for `CCOCC(=O)Nc1cc([N+](=O)[O-])ccc1OC` was inactive: 10.6%; that for `CC1CCC2(CC1)NC(=O)N(Cc1cc(=O)n3ccsc3n1)C2=O` (centres undefined) was inactive: 2.97%; that for `O=C(NNc1nc2ccccc2o1)c1ccccc1` was inactive: 4.28%. The same measure for `COc1ccc(C(OCC(O)CNC(C)c2ccccc2)c2ccc(OC)cc2)cc1` (centres undefined): inactive: -2.16%. As to `COC(=O)c1c(NC(=O)c2cccc(OC)c2)sc2c1CCC(C(C)(C)C)C2` (centres undefined), the “growth rescue (activation)” value is inactive: -6.94%. Turning to `CCOC(=O)N1CCN(C(=O)CSCc2ccccc2)CC1`, the “growth rescue (activation)” value is inactive: 22%. The same measure for `N#CNC1=NCN(CCc2ccccc2)CN1`: inactive: 2.13%; for `CC(O)(c1ccccc1)c1nc(-c2ccncc2)cs1` (centres undefined): inactive: -7.76%. The value for `CC1(C(=O)NS(=O)(=O)C2CC2)CCCN(C(=O)/C=C/c2ccccc2)C1` (centres undefined) was inactive: -0.344%. The same measure for `O=C(Nc1cccc(NC(=O)c2ccco2)c1)c1ccc2c(c1)OCCO2`: inactive: 7.64%; for `CCc1nc2ccc(C(=O)N3CCN(S(=O)(=O)CC)CC3)cn2c1N(C)C(=O)C1CCCCC1`: inactive: -5.79%. Consider `COc1ccc(Cl)cc1-c1cc(C(=O)Nc2ccc(C(C)(C)C)cc2)[nH]n1`, for which the “growth rescue (activation)” value was inactive: 14.6%. As for `COCc1cc(C)nc(SCc2nc3ccccc3c(=O)[nH]2)c1C#N`, the “growth rescue (activation)” value is inactive: 13.3%. The value for `CCN(CC)S(=O)(=O)c1ccc(S(=O)(=O)N2CCC(N3CCCCC3)CC2)cc1` was inactive: -0.0384%; that for `Cc1ccc2nsnc2c1NC(=O)c1cncc(Br)c1` was inactive: -6.5%. For the molecule `O=C(c1ccc([N+](=O)[O-])s1)N1CCc2ccccc21`, the “growth rescue (activation)” value is inactive: 27.8%. Regarding `NC(=O)c1c(NC(=O)c2cccnc2)sc2c1CCCC2`, the “growth rescue (activation)” value is inactive: 8.09%. The value for `Cc1ccc(-c2[nH]ncc2/C=N/n2c(COc3ccccc3)nc3ccccc3c2=O)cc1` was inactive: 10.7%; that for `O=C(O)CCC(=O)N1CCN(c2nc(-c3ccccc3Cl)c3cc(Br)ccc3n2)CC1` was inactive: -16.9%; that for `CC(C)Oc1ccccc1OCCCOc1cccc2cccnc12` was inactive: 10.9%.

Consider `COC(=O)CSc1[nH]c(=O)cc(C)c1C#N`, for which the “growth rescue (activation)” value was inactive: -3.53%.

Take `CCC(Oc1ccccc1F)C(=O)NCCN1CCOCC1` (centres undefined): the “growth rescue (activation)” value was inactive: 0.028%.

For the molecule `CC(C)c1ccc(CCNC(=O)c2ccc([N+](=O)[O-])cc2)cc1`, the “growth rescue (activation)” value is inactive: 4.31%. The value for `O=C(O)COc1c(-c2ccco2)oc2ccccc2c1=O` was inactive: 0.0801%; that for `Cc1ccc(NC(N)=S)cc1C` was inactive: 9%. The value for `CSc1ccc(CN2CCC2(C)C(=O)Nc2ccc3c(c2)OCO3)cc1` (centres undefined) was inactive: 2.09%; that for `CC(NC(=O)c1ccc(Cl)cc1)c1nnc(SCC(=O)NC2=NCCS2)n1C` (centres undefined) was inactive: -30%. The value for `Cc1csc(NC(=O)CSc2sc3c(O)cc(=O)[nH]c3c2C#N)n1` was inactive: 4.82%; that for `O=C1NCCCc2nc(Oc3ccccc3)sc21` was inactive: 5.48%; that for `CCC(C)(C)NC(=O)C(c1ccc(OC)cc1)N(Cc1ccccc1)C(=O)CCC(=O)Nc1cc(C)on1` (centres undefined) was inactive: 10.5%.

With `O=[N+]([O-])c1ccccc1-n1cnc2ccccc21`, the “growth rescue (activation)” value is inactive: -13.2%. The same measure for `O=c1[nH]c(-c2ccc(F)cc2)nc2c1sc(=S)n2-c1ccccc1`: inactive: 7.03%; for `O=C(Nc1nccs1)[C@@H]1CCCN1S(=O)(=O)c1ccccc1F`: inactive: 15.2%. The value for `Cc1nc(CN2CCN(C(=O)CCc3nnc(Cc4c[nH]c5ccccc45)o3)CC2)cs1` was inactive: 5.06%; that for `CC1=NN(c2ccccc2)C(=O)/C1=C/c1cccc(C)c1` was inactive: -6.17%; that for `Cc1cccc(C(=O)OCc2cncs2)c1` was inactive: 17%. The value for `COc1cc2nc(CN3CCN(S(=O)(=O)c4ccccc4C(F)(F)F)CC3)[nH]c(=O)c2cc1OC` was inactive: -3.12%; that for `CCOC(=O)c1c(C(F)(F)F)cc(-c2ccc(F)cc2)nc1C` was inactive: -0.91%.

Take `COc1cc(C)ccc1S(=O)(=O)NC(=O)C1(C)CCN1C(=O)Cc1ccc(C(C)(C)C)cc1` (centres undefined): the “growth rescue (activation)” value was inactive: 11.7%. The value for `O=C(COC(=O)C1(c2ccc(Cl)cc2)CCCC1)N1CCc2ccccc21` was inactive: -21.6%; that for `Cn1c(SC/C=C/c2ccccc2)nnc1-c1cnccn1` was inactive: -9.28%; that for `NS(=O)(=O)c1ccc(CNC(=O)/C=C/c2cccc(Cl)c2)cc1` was inactive: 24.3%. The same measure for `O=C(CN(Cc1ccc(F)cc1)C(=O)CNS(=O)(=O)c1ccc(F)cc1)NCc1ccco1`: inactive: 7.63%; for `COc1ccc(N2C(=O)C3C(C2=O)C2C=CC3C23CC3)c([N+](=O)[O-])c1` (centres undefined): inactive: 29.6%. The value for `Cc1cccc(-c2cc(N3CCCN(C)CC3)n3nccc3n2)c1` was inactive: -3.18%. As for `CCN(CC(=O)NCc1ccc(Cl)cc1)C(=O)/C=C/c1ccccc1`, the “growth rescue (activation)” value is inactive: 0.341%. The same measure for `CCOC(=O)COc1ncn(-c2ccccc2)n1`: inactive: -4.79%; for `Clc1ccc(-n2nnnc2CN2CCOCC2)cc1Cl`: inactive: 17.2%. The value for `CC(C)C(=O)N1CCN(c2ccccc2NC(=O)c2ccc3c(c2)OCCO3)CC1` was inactive: -2.65%. Consider `O=C(N/C(=C\c1ccco1)C(=O)N1CCCC1CO)c1ccccc1` (centres undefined), for which the “growth rescue (activation)” value is inactive: -8.14%.

Source of the values: PubChem BioAssay AID1347073 (National Center for Advancing Translational Sciences (NCATS), 2019).
